T1: human TRIM21 PRYSPRY domain with N-terminal 6xHis tag (human)
T1 construct: Expressed from pET28a in E. coli; also called hTRIM21
T1 chain: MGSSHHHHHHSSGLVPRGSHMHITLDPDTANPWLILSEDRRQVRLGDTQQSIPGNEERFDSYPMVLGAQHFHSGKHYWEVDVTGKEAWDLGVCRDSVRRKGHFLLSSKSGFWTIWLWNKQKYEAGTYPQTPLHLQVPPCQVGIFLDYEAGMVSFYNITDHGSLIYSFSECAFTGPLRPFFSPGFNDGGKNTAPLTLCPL

B1: 3D8VH-G1m/hT4VL-KT0.Avi N315Q.T437D (antibody, human IgG1, kappa)
heavy: EVQLVESGGGLVQPGGSLRLSCAASGYTFTSYVMHWVRQAPGKGLEWVSAINPYNDGNYYADSVKGRFTISRDNSRKTLYLQMNSLRAEDTAVYYCARGAYKRGYAMDYWGQGTTVTVSSASTKGPSVFPLAPSSKSTSGGTAALGCLVKDYFPEPVTVSWNSGALTSGVHTFPAVLQSSGLYSLSSVVTVPSSSLGTQTYICNVNHKPSNTKVDKKV[human IgG1 Fc with N315Q T437D (EU numbers) omitted here]
light: [about 200 residues omitted here]GGGGSGLNDIFEAQKIEWHE
B2: 3D8VH-G1m/hT4VL-KT0.Avi N315Q.Y436T (antibody, human IgG1, kappa)
heavy: EVQLVESGGGLVQPGGSLRLSCAASGYTFTSYVMHWVRQAPGKGLEWVSAINPYNDGNYYADSVKGRFTISRDNSRKTLYLQMNSLRAEDTAVYYCARGAYKRGYAMDYWGQGTTVTVSSASTKGPSVFPLAPSSKSTSGGTAALGCLVKDYFPEPVTVSWNSGALTSGVHTFPAVLQSSGLYSLSSVVTVPSSSLGTQTYICNVNHKPSNTKVDKKV[human IgG1 Fc with N315Q Y436T (EU numbers) omitted here]
light: [about 200 residues omitted here]GGGGSGLNDIFEAQKIEWHE
B3: 3D8VH-G1m/hT4VL-KT0.Avi Q311E (antibody, human IgG1, kappa)
heavy: EVQLVESGGGLVQPGGSLRLSCAASGYTFTSYVMHWVRQAPGKGLEWVSAINPYNDGNYYADSVKGRFTISRDNSRKTLYLQMNSLRAEDTAVYYCARGAYKRGYAMDYWGQGTTVTVSSASTKGPSVFPLAPSSKSTSGGTAALGCLVKDYFPEPVTVSWNSGALTSGVHTFPAVLQSSGLYSLSSVVTVPSSSLGTQTYICNVNHKPSNTKVDKKV[human IgG1 Fc with Q311E (EU numbers) omitted here]
light: [about 200 residues omitted here]GGGGSGLNDIFEAQKIEWHE
B4: 3D8VH-G1m/hT4VL-KT0.Avi Q438E (antibody, human IgG1, kappa)
heavy: EVQLVESGGGLVQPGGSLRLSCAASGYTFTSYVMHWVRQAPGKGLEWVSAINPYNDGNYYADSVKGRFTISRDNSRKTLYLQMNSLRAEDTAVYYCARGAYKRGYAMDYWGQGTTVTVSSASTKGPSVFPLAPSSKSTSGGTAALGCLVKDYFPEPVTVSWNSGALTSGVHTFPAVLQSSGLYSLSSVVTVPSSSLGTQTYICNVNHKPSNTKVDKKV[human IgG1 Fc with Q438E (EU numbers) omitted here]
light: [about 200 residues omitted here]GGGGSGLNDIFEAQKIEWHE
B5: 3D8VH-G1m/hT4VL-KT0.Avi Q438G (antibody, human IgG1, kappa)
heavy: EVQLVESGGGLVQPGGSLRLSCAASGYTFTSYVMHWVRQAPGKGLEWVSAINPYNDGNYYADSVKGRFTISRDNSRKTLYLQMNSLRAEDTAVYYCARGAYKRGYAMDYWGQGTTVTVSSASTKGPSVFPLAPSSKSTSGGTAALGCLVKDYFPEPVTVSWNSGALTSGVHTFPAVLQSSGLYSLSSVVTVPSSSLGTQTYICNVNHKPSNTKVDKKV[human IgG1 Fc with Q438G (EU numbers) omitted here]
light: [about 200 residues omitted here]GGGGSGLNDIFEAQKIEWHE
B6: 3D8VH-G1m/hT4VL-KT0.Avi S440H (antibody)
heavy: EVQLVESGGGLVQPGGSLRLSCAASGYTFTSYVMHWVRQAPGKGLEWVSAINPYNDGNYYADSVKGRFTISRDNSRKTLYLQMNSLRAEDTAVYYCARGAYKRGYAMDYWGQGTTVTVSSASTKGPSVFPLAPSSKSTSGGTAALGCLVKDYFPEPVTVSWNSGALTSGVHTFPAVLQSSGLYSLSSVVTVPSSSLGTQTYICNVNHKPSNTKVDKKV[human IgG1 Fc with S440H (EU numbers) omitted here]
light: [about 200 residues omitted here]GGGGSGLNDIFEAQKIEWHE
B7: 3D8VH-G1m/hT4VL-KT0.Avi T437D (antibody, human IgG1, kappa)
heavy: EVQLVESGGGLVQPGGSLRLSCAASGYTFTSYVMHWVRQAPGKGLEWVSAINPYNDGNYYADSVKGRFTISRDNSRKTLYLQMNSLRAEDTAVYYCARGAYKRGYAMDYWGQGTTVTVSSASTKGPSVFPLAPSSKSTSGGTAALGCLVKDYFPEPVTVSWNSGALTSGVHTFPAVLQSSGLYSLSSVVTVPSSSLGTQTYICNVNHKPSNTKVDKKV[human IgG1 Fc with T437D (EU numbers) omitted here]
light: [about 200 residues omitted here]GGGGSGLNDIFEAQKIEWHE
B8: 3D8VH-G1m/hT4VL-KT0.Avi T437L (antibody, human IgG1, kappa)
heavy: EVQLVESGGGLVQPGGSLRLSCAASGYTFTSYVMHWVRQAPGKGLEWVSAINPYNDGNYYADSVKGRFTISRDNSRKTLYLQMNSLRAEDTAVYYCARGAYKRGYAMDYWGQGTTVTVSSASTKGPSVFPLAPSSKSTSGGTAALGCLVKDYFPEPVTVSWNSGALTSGVHTFPAVLQSSGLYSLSSVVTVPSSSLGTQTYICNVNHKPSNTKVDKKV[human IgG1 Fc with T437L (EU numbers) omitted here]
light: [about 200 residues omitted here]GGGGSGLNDIFEAQKIEWHE
B9: 3D8VH-G1m/hT4VL-KT0.Avi T437V (antibody, human IgG1, kappa)
heavy: EVQLVESGGGLVQPGGSLRLSCAASGYTFTSYVMHWVRQAPGKGLEWVSAINPYNDGNYYADSVKGRFTISRDNSRKTLYLQMNSLRAEDTAVYYCARGAYKRGYAMDYWGQGTTVTVSSASTKGPSVFPLAPSSKSTSGGTAALGCLVKDYFPEPVTVSWNSGALTSGVHTFPAVLQSSGLYSLSSVVTVPSSSLGTQTYICNVNHKPSNTKVDKKV[human IgG1 Fc with T437V (EU numbers) omitted here]
light: [about 200 residues omitted here]GGGGSGLNDIFEAQKIEWHE
B10: 3D8VH-G1m/hT4VL-KT0.Avi Y436D (antibody, human IgG1, kappa)
heavy: EVQLVESGGGLVQPGGSLRLSCAASGYTFTSYVMHWVRQAPGKGLEWVSAINPYNDGNYYADSVKGRFTISRDNSRKTLYLQMNSLRAEDTAVYYCARGAYKRGYAMDYWGQGTTVTVSSASTKGPSVFPLAPSSKSTSGGTAALGCLVKDYFPEPVTVSWNSGALTSGVHTFPAVLQSSGLYSLSSVVTVPSSSLGTQTYICNVNHKPSNTKVDKKV[human IgG1 Fc with Y436D (EU numbers) omitted here]
light: [about 200 residues omitted here]GGGGSGLNDIFEAQKIEWHE
B11: 3D8VH-G1m/hT4VL-KT0.Avi Y436T (antibody, human IgG1, kappa)
heavy: EVQLVESGGGLVQPGGSLRLSCAASGYTFTSYVMHWVRQAPGKGLEWVSAINPYNDGNYYADSVKGRFTISRDNSRKTLYLQMNSLRAEDTAVYYCARGAYKRGYAMDYWGQGTTVTVSSASTKGPSVFPLAPSSKSTSGGTAALGCLVKDYFPEPVTVSWNSGALTSGVHTFPAVLQSSGLYSLSSVVTVPSSSLGTQTYICNVNHKPSNTKVDKKV[human IgG1 Fc with Y436T (EU numbers) omitted here]
light: [about 200 residues omitted here]GGGGSGLNDIFEAQKIEWHE

Target: T1, human TRIM21 PRYSPRY domain with …
Test: SPR, Ab captured on Protein L, hTRIM21 12.5-200 nM

| Binder | Kd | koff | kon |
| --- | --- | --- | --- |
| B1 | 3.28 nM | 0.00639 s⁻¹ | 1.95e+06 M⁻¹ s⁻¹ |
| B2 | 5.82 nM | 0.00641 s⁻¹ | 1.1e+06 M⁻¹ s⁻¹ |
| B3 | 19.6 nM | 0.00288 s⁻¹ | 147000 M⁻¹ s⁻¹ |
| B4 | 11.1 nM | 0.0319 s⁻¹ | 2.87e+06 M⁻¹ s⁻¹ |
| B5 | 89 nM | 0.45 s⁻¹ | 5.06e+06 M⁻¹ s⁻¹ |
| B6 | 54.6 nM | 0.265 s⁻¹ | 4.85e+06 M⁻¹ s⁻¹ |
| B7 | 12.5 nM | 0.03 s⁻¹ | 2.4e+06 M⁻¹ s⁻¹ |
| B8 | 26.3 nM | 0.0034 s⁻¹ | 129000 M⁻¹ s⁻¹ |
| B9 | 27.2 nM | 0.00329 s⁻¹ | 121000 M⁻¹ s⁻¹ |
| B10 | 23.8 nM | 0.0036 s⁻¹ | 151000 M⁻¹ s⁻¹ |
| B11 | 17.7 nM | 0.0242 s⁻¹ | 1.37e+06 M⁻¹ s⁻¹ |

— patent publication US20210238308A1 (Chugai, published 2021)
